pIC50: −log10 of the molar value. The IC50 comes from the fitted curve, where viability falls to half of the control; a limit (>, <) means that the fit lies beyond the doses tested. The AUC spans the tested range (256-fold, ending at the top dose) of the same fit; values near 1 show little effect. For part of these data: The top dose, if marked as inferred, was calculated from the reported fits.
What was measured:
Experiment in all cases: Viability of human cancer cell lines after 72 h of drug (GDSC screen)
[1] = compound: Cc1cccc(Nc2nc(-c3ccncc3)cs2)c1 [STF-62247]; conditions: top dose 10.24 µM; top dose inferred
Method: (§1)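 Human cancer cell lines in 384-well plates, medium with 10% serum, drug for 72 h over a 256-fold dose range (nine 2-fold or five 4-fold steps up to the top dose). Adherent lines were fixed and stained with the nucleic acid dye Syto60, suspension lines read with resazurin; signal relative to control wells, capped at 0 and 100%. One two-parameter sigmoid per drug and line, fitted in a mixed model over all curves with the slope shared within a line.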

[2] = compound: Cc1cnc(CNC(=O)c2c(=O)c3ccc(N4CCCN(C)CC4)nc3n3c2sc2ccccc23)cn1 [CX-5461]; conditions: top dose 10.24 µM; top dose inferred
Method: as §1

[3] = compound: COCC(=O)NC/C=C/c1ccc2ncnc(Nc3ccc(Oc4ccc(C)nc4)c(C)c3)c2c1 [CP724714]; conditions: top dose 10.24 µM; top dose inferred
Method: as §1

[4] = compound: COC1=CC(c2cc3ccccc3[nH]2)=N/C1=C\c1[nH]c(C)cc1C [Obatoclax mesylate]; conditions: top dose 16 µM
Method: as §1

[5] = compound: CC(=O)O[C@H]1C(=O)[C@@]2(C)[C@H]([C@H](OC(=O)c3ccccc3)[C@]3(O)C[C@H](OC(=O)[C@H](O)[C@@H](NC(=O)c4ccccc4)c4ccccc4)C(C)=C1C3(C)C)[C@]1(OC(C)=O)CO[C@@H]1C[C@@H]2O [Paclitaxel]; conditions: top dose 0.1024 µM
Method: as §1

[6] = compound: CC(C)C[C@H](NC(=O)[C@H](Cc1ccccc1)NC(=O)c1cnccn1)B(O)O [Bortezomib]; conditions: top dose 0.02 µM
Method: as §1

Row | Cell Line | AUC [1] | pIC50 [1] | AUC [2] | pIC50 [2] | AUC [3] | pIC50 [3] | AUC [4] | pIC50 [4] | AUC [5] | pIC50 [5] | AUC [6] | pIC50 [6]
1 | HT (B-cell lymphoma, suspension) | 0.974 | < 4.99 | 0.905 | < 4.99 | 0.988 | < 4.99 | 0.258 | 6.66 | 0.83 | 7.24 | 0.586 | 8.68
2 | HT-144 (melanoma, adherent) | 0.984 | < 4.99 | 0.913 | < 4.99 | 0.978 | < 4.99 | 0.047 | > 7.20 | 0.572 | 7.99 | 0.345 | 9.35
3 | HUTU-80 (digestive system, adherent) | 0.968 | < 4.99 | 0.261 | 6.81 | 0.903 | 5.03 | 0.14 | 7.00 | 0.332 | 8.62 | 0.424 | 9.09
4 | Hs-445 (Hodgkin lymphoma, suspension) | 0.989 | < 4.99 | 0.94 | < 4.99 | 0.989 | < 4.99 | 0.531 | 5.92 | 0.668 | 7.74 | 0.556 | 8.75
5 | IMR-5 (neuroblastoma, adherent) | 0.988 | < 4.99 | 0.288 | 6.74 | 0.982 | < 4.99 | 0.182 | 6.86 | 0.418 | 8.40 | 0.991 | < 7.70
6 | IST-MEL1 (melanoma, adherent) | 0.982 | < 4.99 | 0.649 | 5.74 | 0.959 | < 4.99 | 0.062 | > 7.20 | 0.645 | 7.76 | 0.459 | 9.02
7 | IST-MES1 (mesothelioma, adherent) | 0.987 | < 4.99 | 0.942 | < 4.99 | 0.977 | < 4.99 | 0.375 | 6.35 | 0.842 | 7.14 | 0.814 | 7.96
8 | IST-SL1 (small cell lung carcinoma, semi-adherent) | 0.984 | < 4.99 | 0.782 | 5.36 | 0.986 | < 4.99 | 0.721 | 5.36 | 0.701 | 7.62 | 0.685 | 8.38
9 | IST-SL2 (small cell lung carcinoma, suspension) | 0.988 | < 4.99 | 0.98 | < 4.99 | 0.988 | < 4.99 | 0.177 | 6.97 | 0.789 | 7.35 | 0.503 | 8.89
10 | JJN-3 (haematopoietic neoplasm, suspension) | 0.97 | < 4.99 | 0.982 | < 4.99 | 0.991 | < 4.99 | 0.134 | 7.01 | 0.573 | 8.01 | 0.35 | 9.28
11 | JM1 (B-cell lymphoma, suspension) | 0.96 | < 4.99 | 0.553 | 6.06 | 0.969 | < 4.99 | 0.16 | 6.95 | 0.84 | 7.25 | 0.404 | 9.15
12 | JSC-1 (B-cell lymphoma, suspension) | 0.923 | < 4.99 | 0.692 | 5.66 | 0.967 | < 4.99 | 0.145 | 7.10 | 0.478 | 8.25 | 0.517 | 8.86
13 | JVM-3 (lymphoid neoplasm, suspension) | 0.967 | < 4.99 | 0.901 | < 4.99 | 0.973 | < 4.99 | 0.873 | 4.80 | 0.987 | < 6.99 | 0.845 | 7.83
14 | JiyoyeP-2003 (Burkitt lymphoma, suspension) | 0.991 | < 4.99 | 0.939 | < 4.99 | 0.991 | < 4.99 | 0.28 | 6.58 | 0.701 | 7.66 | 0.662 | 8.48
15 | K5 (thyroid, adherent) | 0.977 | < 4.99 | 0.981 | < 4.99 | 0.987 | < 4.99 | 0.346 | 6.42 | 0.827 | 7.23 | 0.512 | 8.87
16 | KALS-1 (glioma, adherent) | 0.958 | < 4.99 | 0.857 | < 4.99 | 0.975 | < 4.99 | 0.421 | 6.25 | 0.41 | 8.48 | 0.461 | 9.03
17 | KARPAS-45 (lymphoblastic leukaemia, suspension) | 0.905 | 5.01 | 0.817 | 5.34 | 0.969 | < 4.99 | 0.053 | > 7.20 | 0.634 | 7.85 | 0.642 | 8.54
18 | KCL-22 (chronic myeloid leukaemia, suspension) | 0.972 | < 4.99 | 0.814 | 5.35 | 0.978 | < 4.99 | 0.187 | 6.84 | 0.582 | 7.99 | 0.428 | 9.09
19 | KE-37 (lymphoblastic leukaemia, suspension) | 0.964 | < 4.99 | 0.752 | 5.57 | 0.993 | < 4.99 | 0.024 | > 7.20 | 0.63 | 7.88 | 0.553 | 8.77
20 | KINGS-1 (glioma, adherent) | 0.974 | < 4.99 | 0.806 | 5.11 | 0.98 | < 4.99 | 0.502 | 5.99 | 0.663 | 7.67 | 0.419 | 9.16
21 | KM12 (large intestine, adherent) | 0.964 | < 4.99 | 0.841 | 5.10 | 0.972 | < 4.99 | 0.244 | 6.77 | 0.521 | 8.13 | 0.484 | 8.95

Source: the supplement of paper PMC4967469
